Measurements published in the RNAGym collection of RNA variant scans (doi:10.7554/elife.90254).
The source gives no read counts; variants with many changes may rest on few reads.

B1: LINE1-mini (parent)
chain: GGCAGAGCUCAACACAGCGUGGCAAAGUGGCUGUGGCUAGACUGCC

Variants of: B1
Experiment: self-cleavage, relative activity (ratio to wild type); higher = more cleavage; in vitro, sequencing; the parent is a self-cleaving ribozyme

Variant | self-cleavage
AGCAGAGCUCAACACAGCGUGGCAAAGUGGCUGUGGCUAGAGUGCU [G1A C42G C46U] | 0.05
GGCAGAGCUAAACUCAGCGUGGCAAAGUGGCUGUGGCUAGACUGGC [C10A A14U C45G] | 0.02
GGAAAAGCUCAACACAGCGUGGCAAAGUGGCUGUGGCUCGAUUGCC [C3A G5A A39C C42U] | 0.24
UGCAGAGCUCAACACAGCGUGGAAAAGUGUCUGUGGCUCGACUUCC [G1U C23A G30U A39C G44U] | 0.07
GGCAGGGCUCGACACAGCGGGGCAAAGUGGCUGUGGCUAGAGUGCC [A6G A11G U20G C42G] | 0.01
GGACGAGCUCAACACAGCGUGGCAAAGUGGCUGUUGCUGGACUGCC [C3A A4C G35U A39G] | 0.27
GGCAGAGAUCAACACAGCGUAGCAAAGUGGUUGUGGCUAGACUGCC [C8A G21A C31U] | 0.19
GGCAGAGCCUCACACAGCGUGGCAAAGUGGCUGUGGCUAGACUGCC [U9C C10U A11C] | 0.04
UGCAGAGCUUAACACAGCGUGGCAAAGUGGCUGUGGCUAGACUACC [G1U C10U G44A] | 0.11
GGCGGAGCUCAACACAUCGUGGCAAAGUGGCUGUGGAUAGACUGCC [A4G G17U C37A] | 0.03
GGCAGAGCUCGACACAGCGUGUCAAAGUGUCUGUGGCUAGACUGCC [A11G G22U G30U] | 0.02
GGGAGAGCUCAACACAGCGUGGCAAAGUGGCCGUGGCUAGACAGCC [C3G U32C U43A] | 0.11
GGCAUAGCUCAACACAGCGUGGUAAAGUGGCUAUGGCUAUGCUGCC [G5U C23U G33A G40U A41G] | 0.06
GGCGGAGCCCAACACAUCGUGGCUAAGAGGCUGUGGAUAGACUGCC [A4G U9C G17U A24U U28A C37A] | 0.02
GGCAGAGGUUAACACAGCGUGUCAAAGUGGCUGUGGCUAUACGGCU [C8G C10U G22U G40U U43G C46U] | 0.05
GGCAGAGCUCAACAAAGCGUGGCAAAGUGGCUGUGGCUUGUCUGCC [C15A A39U A41U] | 0.05
GGUAGAGCUCAUCACGGCGUGGCAAAGUUGCUGUGGCUAGACUGUC [C3U A12U A16G G29U C45U] | 0.14
GGAAUAGCUCAACACAGCGUGGCGAAGUGGCUGUGGCUAGACUGAC [C3A G5U A24G C45A] | 0.08
GGCAGAGAUCAAUACAGCGGGGCAUAGUGGCUGUUGCUAGACUGCC [C8A C13U U20G A25U G35U] | 0.26

Variant | self-cleavage
GGCCGAGCUCAACACCUCGUGGCAAAGUGGCUGUGGCUUGACUGCC [A4C A16C G17U A39U] | 0.08
GGAAGACCUCAACACAACGUGACAAAGUAGCUGUGGCUUAACUGUC [C3A G7C G17A G22A G29A A39U G40A C45U] | 0.31
GGCCGAGCUGAACACAGCGUGGCCAAGUGGCUGUGGCUAGCCUGUC [A4C C10G A24C A41C C45U] | 0.01
GGAAGAGCUUAACACAGCGUGGCAAAGUGGCUGUGACUAGACUGCC [C3A C10U G36A] | 0.34
GGCAGAGGUCAACACAGCGUGGCAAAGUGGCAGUGGCUAGACUGCA [C8G U32A C46A] | 0.06
GGCUGAGCUCAACACGGCGUGGCAACGUGGCUGUGGCUAGACUGCC [A4U A16G A26C] | 0.13
GGAAGAACUCAACAAAGCGUGGCAAAGUGGCUGUGGCAAGACUGAA [C3A G7A C15A U38A C45A C46A] | 0.08
UGCAGAACUCCACACAGCGGGGGAAAGUGGCUGUGGAUAGACUGCC [G1U G7A A11C U20G C23G C37A] | 0
GGCAGAGCUCAACACAGCGUGGCAAAGUGGCUGUGGCUAUACGACC [G40U U43G G44A] | 0.05
AGCCGAGCUCAACAGCGCGUGGAAAAGUGGCUGUGGCUAGACUGCC [G1A A4C C15G A16C C23A] | 0.1
GGCAGAGCUCAACACCGCGUGGCCAAGUGGCUGAAGCAAGACUGCC [A16C A24C U34A G35A U38A] | 0
GGCAGAGCUCAACACAGCGUGGCAGAGUGUCUGUGGCUAGCCUGCC [A25G G30U A41C] | 0.02
GGCAGAGCUCAACACAGGAUGGCAAAGUGGCUCUGGCUAGACUGCA [C18G G19A G33C C46A] | 0.01
GGCUGAGCUCAACACAGCGUGGCAAAGUAGCUGUGGCUAGACUGGC [A4U G29A C45G] | 0.04
GGCAGAGCUCAACACAGCGCGGCAAAGUCGCUGUGGCAAAAAUGCC [U20C G29C U38A G40A C42A] | 0.02
GGCAGAGCUAAACACAGCGUGGCAAAGUGGCUGUGGCGACACUGCC [C10A U38G G40C] | 0
GGCAGUGCUCAACACAGCGUGGCAAUGUGGCUGUGGCUAUACUGCC [A6U A26U G40U] | 0.05
GGCAGAGCUGAACACAGCAUGGCAAAGUGGCUGUAGCUAGACUCCC [C10G G19A G35A G44C] | 0.01
GGCAGAGCUCAACACUGCGUGGCAAAGUGGUUGUGGCUAGACUGCA [A16U C31U C46A] | 0.08

Variant | self-cleavage
GGCAGAGAUCAAAACAGCGUGGCAAAGUGGCUUUGGCUCGACUGCC [C8A C13A G33U A39C] | 0.24
GGCAUAGCUCAACACAGCGUUGCAAAGUGGCUGGGGCUAGACUGCC [G5U G21U U34G] | 0.04
GGCAGAGCUAAACUCAGCGUGGCACACUGGCUGUGGCUAGACUGCC [C10A A14U A25C G27C] | 0
GGCAUAGCUCAACACAGCGUUGAAAAGUGGCUGUGGCUAGACUAAC [G5U G21U C23A G44A C45A] | 0.02
GGCAGAGCUAAGCACAGCAUGGCAAAGUGGCUGUGGCUAGACUGCU [C10A A12G G19A C46U] | 0.03
GGCAAAGCUCUACACAGCGUGACAAAGUGGCUGUGGCGAGACUCCC [G5A A11U G22A U38G G44C] | 0.01
GACAGAGCUCAACACAGCGUGGCAAAGAGGCUGUGGGUAAACUGCC [G2A U28A C37G G40A] | 0.13
GGCAGAGCUCAACUCAGCGUGGCAAAGUGGCUGGGGGUACACUGCC [A14U U34G C37G G40C] | 0.02
GGCAGAGCUCAAUACAGCGUGUCAACGUAGCUUUGGCUAGACUGCC [C13U G22U A26C G29A G33U] | 0.06
GGCAGAGCUCAACACAGCGUGGCAAAUUAGCUUUGGCUAGACUGCA [G27U G29A G33U C46A] | 0.08
GGCAGAUCUUAACACAGCGUGGAAAAGUGGCUGUGGCUAGACUGCC [G7U C10U C23A] | 0.03
GGCAGAACUCAACACAGCGUGGCGCAUUGGCUGUGGCUAAACUGCC [G7A A24G A25C G27U G40A] | 0.06
AGCAGAGCUCAACACUGCGUGGCAAAGUGGCUGUGACUAGACUGCC [G1A A16U G36A] | 0.1
GGGAGAGCUCAUGACAGCGUGGCAAAGUGGCUGUCGCUAGACUGCC [C3G A12U C13G G35C] | 0.19
GGCAGAGCUCAAUGCAGCGUGGCAAAAUGGCUGAGGCUCGACUGCC [C13U A14G G27A U34A A39C] | 0.06
GGCAGAGCUCAACACAGCGUGGCAAAGUGGCUCAUGCUAGACUGCC [G33C U34A G35U] | 0.02
GGCAGAGCUCAACACAGCGUGGCAAAGUGGCUGUGGUAAGACUUCC [C37U U38A G44U] | 0.14
GGCAGAGCUCAACACCGCGUGGCAACGUGGCUGUGGCUAAACUGCC [A16C A26C G40A] | 0.01
